# Data as given in the supplement of paper PMC8285479.
# Where a name gives a salt, the structure may show the parent alone. ± gives the standard deviation of the averaged measurements. In all, about 1,900 compounds were measured (“normalised cell viability (NPI; 0 = phenylarsine oxide control, 1 = DMSO control)”: median about 1, lowest 2% from about 0.039 on). This is one part of the list.
# Test system: NCI-H1944
# Assay: normalised cell viability (NPI; 0 = phenylarsine oxide control, 1 = DMSO control) (fraction of DMSO control); NCI-H1944 is a non-small cell lung cancer line; higher = more viable cells (less compound toxicity)
# Conditions: 6 days
# [1] = glucocorticoid arm: hydrocortisone 2.75 uM co-treatment, compound 1 µM
# [2] = glucocorticoid arm: hydrocortisone 2.75 uM co-treatment, compound 5 µM
# [3] = glucocorticoid arm: hydrocortisone 2.75 uM pre-treated 2 days and continued, compound 1 µM
# [4] = glucocorticoid arm: hydrocortisone 2.75 uM pre-treated 2 days and continued, compound 5 µM
# [5] = glucocorticoid arm: vehicle, compound 1 µM
# [6] = glucocorticoid arm: vehicle, compound 5 µM
# 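Also: CTB read-out in 384-well plates, mean of triplicate wells, normalised per plate against 1 µM phenylarsine oxide and 0.1% DMSO, compounds added 24 h after seeding.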
compound,measurement,setting,value
CC(N)(Cc1ccc(O)cc1)C(=O)O (racemic) [DL-alpha-Methyl-p-tyrosine],normalised cell viability,[1],0.994 ± 0.0053
same,normalised cell viability,[2],0.9897 ± 0.0074
same,normalised cell viability,[3],1.01 ± 0.011
same,normalised cell viability,[4],0.992 ± 0.025
same,normalised cell viability,[5],0.9957 ± 0.0045
same,normalised cell viability,[6],0.9913 ± 0.0064
COc1cc(C(=O)NC2CCN(C)CC2)ccc1Nc1ncc2c(n1)N(C1CCCC1)CC(F)(F)C(=O)N2C,normalised cell viability,[1],0.354 ± 0.024
same,normalised cell viability,[2],0.359 ± 0.031
same,normalised cell viability,[3],0.73 ± 0.022
same,normalised cell viability,[4],0.7627 ± 0.007
same,normalised cell viability,[5],0.066 ± 0.0089
same,normalised cell viability,[6],0.0695 ± 0.004
O=C(NCc1cccc(O)c1)Nc1nc(-c2ccncc2)cs1,normalised cell viability,[1],0.994 ± 0.01
same,normalised cell viability,[2],0.978 ± 0.021
same,normalised cell viability,[3],1.01 ± 0.014
same,normalised cell viability,[4],0.971 ± 0.035
same,normalised cell viability,[5],0.984 ± 0.0069
same,normalised cell viability,[6],0.816 ± 0.054
NCCS [Cysteamine hydrochloride],normalised cell viability,[1],0.998 ± 0.011
same,normalised cell viability,[2],0.961 ± 0.03
same,normalised cell viability,[3],0.995 ± 0.014
same,normalised cell viability,[4],0.985 ± 0.031
same,normalised cell viability,[5],0.9837 ± 0.0058
same,normalised cell viability,[6],0.988 ± 0.011
COCCOC(=O)C1=C(C)NC(C)=C(C(=O)OC(C)C)C1c1cccc([N+](=O)[O-])c1 (stereo unspecified) [Nimodipine],normalised cell viability,[1],1.013 ± 0.0058
same,normalised cell viability,[2],1.05 ± 0.021
same,normalised cell viability,[3],1.01 ± 0.012
same,normalised cell viability,[4],1.06 ± 0.074
same,normalised cell viability,[5],0.991 ± 0.0072
same,normalised cell viability,[6],1 ± 0.014
CN1C(C(=O)Nc2ccccn2)=C(O)c2ccccc2S1(=O)=O [Piroxicam],normalised cell viability,[1],1.01
same,normalised cell viability,[2],1.03 ± 0.034
same,normalised cell viability,[3],1.023 ± 0.0058
same,normalised cell viability,[4],0.893 ± 0.22
same,normalised cell viability,[5],1.005 ± 0.0087
same,normalised cell viability,[6],1.01 ± 0.011
CCN(CC)C(=O)c1ccc(O)c(OC)c1 [Vanillic acid diethylamide],normalised cell viability,[1],0.999 ± 0.01
same,normalised cell viability,[2],0.971 ± 0.02
same,normalised cell viability,[3],1.002 ± 0.0072
same,normalised cell viability,[4],0.977 ± 0.027
same,normalised cell viability,[5],0.9923 ± 0.0051
same,normalised cell viability,[6],0.992 ± 0.0035
NC1(C(=O)O)CC1 [1-Aminocyclopropanecarboxylic acid hydrochloride],normalised cell viability,[1],0.983 ± 0.0082
same,normalised cell viability,[2],1.01 ± 0.021
same,normalised cell viability,[3],0.995 ± 0.002
same,normalised cell viability,[4],0.997 ± 0.0042
same,normalised cell viability,[5],0.9963 ± 0.004
same,normalised cell viability,[6],1.001 ± 0.0081
O=C(c1ccc(F)cc1)C1CCN(CCn2c(=O)[nH]c3ccccc3c2=O)CC1 [Ketanserin tartrate],normalised cell viability,[1],1.02 ± 0.01
same,normalised cell viability,[2],0.9957 ± 0.0038
same,normalised cell viability,[3],1.02 ± 0.011
same,normalised cell viability,[4],1.01 ± 0.011
same,normalised cell viability,[5],1.01
same,normalised cell viability,[6],1.01 ± 0.01
O=C(c1ccc(F)cc1)C1CCN(CCn2c(=O)[nH]c3ccccc3c2=O)CC1 [Ketanserin],normalised cell viability,[1],0.975 ± 0.023
same,normalised cell viability,[2],0.976 ± 0.033
same,normalised cell viability,[3],1 ± 0.0092
same,normalised cell viability,[4],1.003 ± 0.0058
same,normalised cell viability,[5],0.986 ± 0.01
same,normalised cell viability,[6],0.9933 ± 0.0059
NC(=O)Nc1cc(-c2cccc(F)c2)sc1C(=O)N[C@H]1CCCNC1,normalised cell viability,[1],0.65 ± 0.013
same,normalised cell viability,[2],0.45 ± 0.024
same,normalised cell viability,[3],0.93 ± 0.021
same,normalised cell viability,[4],0.7733 ± 0.0071
same,normalised cell viability,[5],0.338 ± 0.012
same,normalised cell viability,[6],0.158 ± 0.015
Nc1nccc(Oc2ccc(NC(=O)c3c[nH]cc(-c4ccc(F)cc4)c3=O)cc2F)c1Cl,normalised cell viability,[1],1.013 ± 0.0058
same,normalised cell viability,[2],1.02 ± 0.033
same,normalised cell viability,[3],1.033 ± 0.0058
same,normalised cell viability,[4],1.03 ± 0.015
same,normalised cell viability,[5],1.01
same,normalised cell viability,[6],1.023 ± 0.0058
CC(=O)[C@@]1(O)CC[C@H]2[C@@H]3CCC4=CC(=O)CC[C@]4(C)[C@H]3CC[C@@]21C [17alpha-hydroxyprogesterone],normalised cell viability,[1],1.007 ± 0.0058
same,normalised cell viability,[2],0.9563 ± 0.0084
same,normalised cell viability,[3],1 ± 0.031
same,normalised cell viability,[4],1 ± 0.019
same,normalised cell viability,[5],1 ± 0.0095
same,normalised cell viability,[6],0.9933 ± 0.0032
Cl.N[C@@H](CCC(=O)O)C(=O)O [L-Glutamic acid hydrochloride],normalised cell viability,[1],1.013 ± 0.0058
same,normalised cell viability,[2],1 ± 0.029
same,normalised cell viability,[3],1.013 ± 0.0058
same,normalised cell viability,[4],0.989 ± 0.027
same,normalised cell viability,[5],1.023 ± 0.0058
same,normalised cell viability,[6],1.02 ± 0.01
O=C1NCC2(CCN(CCc3ccccc3)CC2)O1 [Fenspiride hydrochloride],normalised cell viability,[1],1.01 ± 0.016
same,normalised cell viability,[2],0.9663 ± 0.0074
same,normalised cell viability,[3],0.998 ± 0.002
same,normalised cell viability,[4],0.9877 ± 0.0093
same,normalised cell viability,[5],0.9907 ± 0.0083
same,normalised cell viability,[6],0.9977 ± 0.0011
Clc1ccc2c(c1)CCc1cccnc1C2=C1CCNCC1 [Desloratadine],normalised cell viability,[1],1.01 ± 0.032
same,normalised cell viability,[2],1.03 ± 0.017
same,normalised cell viability,[3],1.02 ± 0.011
same,normalised cell viability,[4],1.01 ± 0.032
same,normalised cell viability,[5],0.9947 ± 0.005
same,normalised cell viability,[6],0.9917 ± 0.0061
Nc1nc(NCCNc2ncc(-n3ccnc3)c(-c3ccc(Cl)cc3Cl)n2)ccc1[N+](=O)[O-],normalised cell viability,[1],1.11 ± 0.01
same,normalised cell viability,[2],1.2 ± 0.036
same,normalised cell viability,[3],1.07 ± 0.011
same,normalised cell viability,[4],1.11 ± 0.029
same,normalised cell viability,[5],1.02 ± 0.01
same,normalised cell viability,[6],1.047 ± 0.0058
CSC(=N)N [S-Methylisothiourea hemisulfate],normalised cell viability,[1],0.994 ± 0.015
same,normalised cell viability,[2],0.97 ± 0.016
same,normalised cell viability,[3],0.996 ± 0.016
same,normalised cell viability,[4],0.998 ± 0.071
same,normalised cell viability,[5],0.994 ± 0.004
same,normalised cell viability,[6],0.992 ± 0.0061
O=C1NC(=O)c2cc(Nc3ccccc3)c(Nc3ccccc3)cc21,normalised cell viability,[1],1.01 ± 0.018
same,normalised cell viability,[2],1.027 ± 0.0058
same,normalised cell viability,[3],1.007 ± 0.0058
same,normalised cell viability,[4],0.9975 ± 0.0035
same,normalised cell viability,[5],1.006 ± 0.0063
same,normalised cell viability,[6],1.017 ± 0.0058
CC(C)c1ccccc1Cc1cc(C(=O)Nc2ccc(S(=O)(=O)c3ccccc3C(C)(C)C)cc2)c(O)c(O)c1O,normalised cell viability,[1],0.9933 ± 0.0099
same,normalised cell viability,[2],0.826 ± 0.049
same,normalised cell viability,[3],0.998 ± 0.014
same,normalised cell viability,[4],0.961 ± 0.018
same,normalised cell viability,[5],1.007 ± 0.0058
same,normalised cell viability,[6],0.813 ± 0.033
Clc1cccc(Cl)c1NC1=NCCN1 [Clonidine HCl],normalised cell viability,[1],1.017 ± 0.0058
same,normalised cell viability,[2],1.04 ± 0.017
same,normalised cell viability,[3],1.01 ± 0.025
same,normalised cell viability,[4],1.05
same,normalised cell viability,[5],1.006 ± 0.0063
same,normalised cell viability,[6],1.003 ± 0.0058
Clc1cccc(Cl)c1NC1=NCCN1 [Clonidine hydrochloride],normalised cell viability,[1],1.007 ± 0.0058
same,normalised cell viability,[2],0.999 ± 0.019
same,normalised cell viability,[3],0.9893 ± 0.0093
same,normalised cell viability,[4],0.992 ± 0.026
same,normalised cell viability,[5],0.9797 ± 0.0095
same,normalised cell viability,[6],0.986 ± 0.001
CN(C)S(=O)(=O)c1ccc2c(c1)/C(=C/c1cc3c([nH]1)CCCC3)C(=O)N2,normalised cell viability,[1],0.9813 ± 0.0042
same,normalised cell viability,[2],0.837 ± 0.022
same,normalised cell viability,[3],1.02 ± 0.052
same,normalised cell viability,[4],1 ± 0.013
same,normalised cell viability,[5],0.996 ± 0.0027
same,normalised cell viability,[6],0.827 ± 0.039
CN1CCN(C2Cc3ccccc3Sc3ccc(Cl)cc32)CC1 (racemic) [(±)-Octoclothepin maleate],normalised cell viability,[1],1.01 ± 0.011
same,normalised cell viability,[2],0.9477 ± 0.0045
same,normalised cell viability,[3],1.01 ± 0.015
same,normalised cell viability,[4],1.05 ± 0.087
same,normalised cell viability,[5],1 ± 0.0095
same,normalised cell viability,[6],1 ± 0.011
N=C(N)NCCCCNC(=N)N [Arcaine sulfate],normalised cell viability,[1],0.987 ± 0.012
same,normalised cell viability,[2],0.994 ± 0.033
same,normalised cell viability,[3],0.993 ± 0.0066
same,normalised cell viability,[4],1.01 ± 0.038
same,normalised cell viability,[5],0.987 ± 0.013
same,normalised cell viability,[6],0.9957 ± 0.0045
CCCNC(=O)NS(=O)(=O)c1ccc(Cl)cc1 [Chlorpropamide],normalised cell viability,[1],1.01 ± 0.011
same,normalised cell viability,[2],1.01 ± 0.016
same,normalised cell viability,[3],1.01
same,normalised cell viability,[4],1.02 ± 0.014
same,normalised cell viability,[5],0.998 ± 0.002
same,normalised cell viability,[6],1.013 ± 0.0058
